# In PubChem BioAssay AID488969 (Vanderbilt High Throughput Screening Facility, 2010):
# Whole data set: some 110,000 compounds, median “z-score” near -0.1, cut for the highest 2% near 2. Some of the results follow.
# Target: Metabotropic glutamate receptor 8 (Rattus norvegicus) (UniProt P70579)
# Assay: mGluR8 Gi/Go-coupled signaling modulation – cell-based, rat, thallium flux, HTS, primary screen (AID 488969)
# Settings: HEK293 rat mGluR8, GIRK (G protein-gated inwardly rectifying potassium channel) thallium flux, FluoZin2; at 10 µM; stronger effect = higher value; submaximal glutamate (EC20) added with thallium
# Sequence of UniProt P70579 (P70579 whole entry, looked up): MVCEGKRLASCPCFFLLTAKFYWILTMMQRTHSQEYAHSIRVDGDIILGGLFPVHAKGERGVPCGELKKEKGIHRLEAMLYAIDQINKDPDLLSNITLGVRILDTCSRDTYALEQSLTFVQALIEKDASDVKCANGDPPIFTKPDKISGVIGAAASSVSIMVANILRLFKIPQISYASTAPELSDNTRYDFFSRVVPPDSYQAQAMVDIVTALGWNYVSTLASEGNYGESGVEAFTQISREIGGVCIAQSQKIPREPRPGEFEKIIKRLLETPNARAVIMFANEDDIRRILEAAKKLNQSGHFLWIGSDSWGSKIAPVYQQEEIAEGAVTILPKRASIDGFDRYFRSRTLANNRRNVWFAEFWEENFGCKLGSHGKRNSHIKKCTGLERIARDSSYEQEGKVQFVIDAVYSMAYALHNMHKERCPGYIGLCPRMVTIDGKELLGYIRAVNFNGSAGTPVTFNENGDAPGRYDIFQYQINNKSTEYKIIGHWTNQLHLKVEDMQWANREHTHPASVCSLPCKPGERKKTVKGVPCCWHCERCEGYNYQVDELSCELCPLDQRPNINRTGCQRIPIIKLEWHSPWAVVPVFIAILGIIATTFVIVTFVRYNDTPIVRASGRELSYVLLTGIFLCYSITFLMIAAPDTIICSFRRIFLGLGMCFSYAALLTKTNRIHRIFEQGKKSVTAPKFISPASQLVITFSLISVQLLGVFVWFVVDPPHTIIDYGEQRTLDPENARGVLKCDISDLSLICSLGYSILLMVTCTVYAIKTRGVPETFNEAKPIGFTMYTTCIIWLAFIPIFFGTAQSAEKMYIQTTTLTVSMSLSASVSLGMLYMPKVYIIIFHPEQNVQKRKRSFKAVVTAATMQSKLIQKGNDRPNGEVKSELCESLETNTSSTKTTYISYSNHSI
row,SMILES,z-score
1,CCCc1sc(N/N=C/c2ccccn2)nc1-c1ccc(F)cc1,1.53
2,CCOC(=O)c1[nH]nc(-c2cc(CC)c(O)cc2O)c1-c1cscn1,-0.167
3,Cc1csc2ncc(C(=O)N(Cc3ccccc3)c3ccccn3)c(=O)n12,-0.103
4,CCCCCCOC(=O)CCc1c(C)nc(N)[nH]c1=O,-0.0673
5,COc1cc(C(=O)O)ccc1OC(C)=O,-1.37
6,O=C(O)CCCCCNC(=O)c1ccc(Br)cc1,0.224
7,N#CCOC(=O)c1sccc1-n1cccc1,-0.0708
8,O=C(CCc1nc(-c2ccccc2F)no1)NCc1ccco1,0.00484
9,CCOc1ccc(NC(=O)COC(=O)c2ncc(Cl)c(Cl)c2Cl)cc1,-0.271
10,COc1cc(OC)cc(OCC(O)Cn2cnc(-c3ccccc3)c2)c1 (stereo not given),0.0129
11,Cc1[nH]c2ccccc2c1/C=N/NC(=O)c1cccc(S(=O)(=O)Nc2ccccc2Cl)c1,-0.545
12,CCc1nnc(NCC(=O)N2CCc3ccccc32)s1,-0.963
13,COc1ccccc1C(=O)Nc1cc2cc(Br)ccc2oc1=O,0.255
14,O=C1CC(N2CCC(O)CC2)C(=O)N1c1ccc(Br)cc1 (stereo not given),-0.0798
15,COc1ccc(C(=O)OCC(=O)NCc2ccc3c(c2)OCO3)cc1[N+](=O)[O-],-0.193
16,O=C1CC(C(=O)Nc2ccc(Cl)cc2[N+](=O)[O-])C2(CCCCC2)O1 (stereo not given),-0.203
17,O=[N+]([O-])c1ccc(Cl)c(/C=N/N2CCN(Cc3ccc(Cl)cc3)CC2)c1,0.401
18,CC1CCCCC1NC(=O)CSc1nnc(COc2ccccc2Cl)o1 (stereo not given),-0.148
19,CCCCC(=O)Nc1ccc(C(=O)NNC(=O)CCCOc2ccc(Cl)cc2Cl)cc1,-0.184
20,CC1(C)CC(=O)C(C(C2=C(O)CC(C)(C)CC2=O)c2ccc([N+](=O)[O-])cc2)C(=O)C1 (stereo not given),0.238
21,COc1ccc(CCNC(=O)CN(C2CCCCC2)S(C)(=O)=O)cc1OC,-0.37
22,Cc1ccc(Nc2nc(CSc3nnc(-c4ccncc4)n3-c3ccccc3C)cs2)cc1,-0.034
23,CCOC(=O)c1ccccc1NC(=O)c1nc2nccc(C)n2n1,-0.445
24,FC(F)Sc1ccc(-n2cc(-c3ccc(Cl)cc3)[n+]3c2CCC3)cc1,0.00901
25,COC(=O)c1c(/N=C/N(C)C)sc2c1CCN(c1ncc(C(F)(F)F)cc1Cl)C2,-0.0857
26,C=CCc1c(C)nc(-c2ccccc2)nc1Nc1ccccc1O,-0.183
27,COC(=O)C1CN(S(=O)(=O)c2ccccc2)CCN1S(=O)(=O)c1ccccc1 (stereo not given),-0.636
28,FC(F)(F)c1cccc(NC(=S)NC2CCCC2)c1,1.26
29,Cc1cc(N)n2ncc(-c3ccc(Cl)cc3)c2n1,0.0522
30,COc1ccc(S(=O)(=O)Nc2ccc3oc(C)c(C(=O)O)c3c2)cc1,-1.25
